Assay results taken from paper PMC4336329 (PLoS ONE, 2015).
The campaign covered roughly 310,000 compounds. About 2,200 (0.71%) showed an effect of 50% or more. Effects have a minus sign here. This is one part of the list.

Biological target: human ether-à-go-go-related gene (hERG) potassium channel (human, UniProt Q12809)
Test: primary screen, population patch clamp on CHO cells stably expressing hERG

Sequence of human ether-à-go-go-related gene (hERG) potassium channel (Q12809 whole entry, looked up): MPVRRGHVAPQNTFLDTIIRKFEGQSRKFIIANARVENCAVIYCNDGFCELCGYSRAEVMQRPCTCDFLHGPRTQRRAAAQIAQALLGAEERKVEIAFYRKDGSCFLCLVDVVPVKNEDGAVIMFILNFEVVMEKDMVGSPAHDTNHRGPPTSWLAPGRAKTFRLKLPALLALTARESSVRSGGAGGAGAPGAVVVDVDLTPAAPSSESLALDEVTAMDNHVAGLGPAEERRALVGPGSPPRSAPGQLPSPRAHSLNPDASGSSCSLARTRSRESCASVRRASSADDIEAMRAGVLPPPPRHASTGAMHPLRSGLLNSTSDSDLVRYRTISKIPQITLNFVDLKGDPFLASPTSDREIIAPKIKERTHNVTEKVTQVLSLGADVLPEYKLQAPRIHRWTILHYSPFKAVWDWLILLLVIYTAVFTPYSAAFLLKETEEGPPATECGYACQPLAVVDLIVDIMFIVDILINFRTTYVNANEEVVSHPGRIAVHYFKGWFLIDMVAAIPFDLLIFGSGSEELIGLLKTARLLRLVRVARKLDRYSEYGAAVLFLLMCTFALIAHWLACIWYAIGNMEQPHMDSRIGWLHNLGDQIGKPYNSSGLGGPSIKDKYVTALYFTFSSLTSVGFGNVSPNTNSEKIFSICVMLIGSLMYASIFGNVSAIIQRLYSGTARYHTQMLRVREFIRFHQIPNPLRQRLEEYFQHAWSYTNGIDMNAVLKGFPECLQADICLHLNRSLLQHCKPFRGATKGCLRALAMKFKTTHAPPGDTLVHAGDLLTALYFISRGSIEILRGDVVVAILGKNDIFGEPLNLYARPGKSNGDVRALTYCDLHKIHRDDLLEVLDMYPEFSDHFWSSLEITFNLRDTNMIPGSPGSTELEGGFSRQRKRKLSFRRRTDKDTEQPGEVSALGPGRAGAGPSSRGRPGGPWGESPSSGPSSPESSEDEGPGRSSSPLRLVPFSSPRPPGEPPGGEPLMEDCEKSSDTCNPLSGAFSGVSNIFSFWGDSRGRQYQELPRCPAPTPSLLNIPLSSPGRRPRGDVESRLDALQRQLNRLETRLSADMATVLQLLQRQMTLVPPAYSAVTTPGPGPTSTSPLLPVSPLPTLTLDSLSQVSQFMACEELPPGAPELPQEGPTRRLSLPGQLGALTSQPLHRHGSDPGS

| SMILES | hERG current change (%, negative = inhibition) at 1uM [%] |
| --- | --- |
| CCOC(=O)COc1coc(CN2CCN(c3ccccc3)CC2)cc1=O | 15.8 |
| CC1CC(=O)C2=C(C1)Nc1ccccc1SC2c1ccc(F)cc1 (centres unmarked) | 6.85 |
| CCCCOC(=O)CCCc1ccc([N+](=O)[O-])cc1[N+](=O)[O-] | -3.62 |
| CN(C)/C=C/C(=O)c1ccc(Cl)cc1Cl | 12.1 |
| COc1ccc(NC(=O)CCNS(=O)(=O)c2cccc3nsnc23)cc1 | 9.08 |
| O=C(OCCNC(=O)c1ccc2ccccc2n1)c1cccnc1 | -8.58 |
| CCn1c(/C=N/c2nc3ccccc3n2C)nc2ccccc21 | -0.915 |
| CCOC(=O)C(NC(=O)CC)(Nc1sc(C)c(CC)c1C#N)C(F)(F)F (centres unmarked) | -0.757 |
| CC(NCc1ccc(F)cc1)C(=O)Nc1cc(S(=O)(=O)N2CCCCC2)ccc1Cl (centres unmarked) | 4.54 |
| Cc1ccc(OCC(=O)NS(=O)(=O)c2ccc(Cl)cc2)cc1 | 14.1 |
| O=C(N1CCN(c2ccccc2)CC1)C1(S(=O)(=O)c2ccc(Cl)cc2)CC1 | -12.4 |
| COc1ccc2c(CC(=O)N[C@@H](Cc3ccccc3)C(=O)O)cc(=O)oc2c1 | 13.1 |
| Cc1cccc(NC(=O)c2cc(NC(=O)C3CCCCC3C(=O)O)ccc2N2CCCCC2)c1 (centres unmarked) | -4.58 |
| O=C(NCc1ccco1)c1ccc(C(=O)NCc2ccco2)s1 | 3.18 |
| CNC(=O)c1cnc(-c2ccccc2)nc1-c1ccccc1 | 12.5 |
| O=S(=O)(c1ccccc1)[C@@]1(c2ccc(Br)cc2)C[C@@H]2ON=C(c3cccc(Br)c3)[C@@H]2C1 | -1.59 |
| NC(=O)c1ccccc1NC(=O)CN1CCN(Cc2ccccc2)CC1 | -77.7 |
| COc1cccc(C(=O)Nc2cc(=O)n(C)c(=O)n2C)c1OC | 11.4 |
| CC(C)CC(C(=O)Nn1cnnc1)N1C(=O)c2ccccc2C1=O (centres unmarked) | 9.33 |
| Cc1cc(C)c(OCC(=O)NCC2COc3ccccc3O2)c(C)c1 (centres unmarked) | 1.11 |
| CCCn1c(=O)[nH]c(=O)c2c1nc(-c1ccc(C#N)cc1)n2CCOC | 8.82 |
| Cc1ccc2nsnc2c1N | 10.9 |
| COc1cc(C(=O)ON=C2C=C(C)C(=O)C(C)=C2)cc(OC)c1OC | 2.11 |

| SMILES | hERG current change (%, negative = inhibition) at 1uM [%] |
| --- | --- |
| CCOC(=O)C(=CNc1ccc2c(c1)nnn2-c1ccc(Cl)cc1)C(=O)OCC | 1.84 |
| CCCc1nc(SCC(=O)NC2CC2)c2c(C)c(C)sc2n1 | -0.874 |
| O=C(NC1CC1)C1CC(=O)N(c2cccc(Cl)c2Cl)C1 (centres unmarked) | 13.1 |
| c1ccc(-c2csc3nnc(SCc4ccc5c(c4)OCO5)n23)cc1 | -14.3 |
| CCCCCOC(=O)c1[nH]c2c(c1C)C(=O)C(C(=O)OC)C(C)C2 (centres unmarked) | 14.9 |
| Cc1ccccc1Cn1nc(C)c(NC(=O)C2c3ccccc3Oc3ccccc32)c1C | 2.28 |
| CC(CN1CCN(Cc2ccccc2)CC1)OC(=O)c1ccco1.Cl (centres unmarked) | -3.97 |
| C=CCOc1ccccc1CN(CCc1ccccc1)C(=O)c1cccc(S(C)(=O)=O)c1 | -8.67 |
| CC12CCC(=O)N1C(C(=O)OCC(=O)Nc1sccc1C#N)CS2 (centres unmarked) | 7.17 |
| CCN1C(=O)C(CC(=O)Nc2ccc(OC)cc2)N(CCc2ccccc2F)C1=S (centres unmarked) | 9.05 |
| CC(=O)/C(=N/Nc1ccccc1[N+](=O)[O-])N1CCCc2ccccc21 | 9.41 |
| Cc1nc2cc(C)c(C)cc2s1 | 15.5 |
| COC(=O)c1ccc(C(=O)OC)c(NC(=O)C(C)(C)C)c1 | 12.4 |
| Cc1cc(C)c2c(-n3cccc3)c(C(=O)NNS(=O)(=O)c3ccc(Br)cc3)sc2n1 | 11.2 |
| NC(=O)c1c(NC(=O)CN2C(=O)CCC2=O)sc2c1CCCCC2 | 12.1 |
| O=C(Nc1ccccc1Br)c1ccc(OC(=S)N2CCOCC2)cc1 | 12.3 |
| Cc1[nH]c(=O)[nH]c(=O)c1S(=O)(=O)N1CCOCC1 | 13.5 |
| Nc1nnc(N2CCCCCC2)s1 | -8.04 |
| CCCCC(=O)Nc1cccc(-c2ccc3nncn3n2)c1 | 1.75 |
| S=P(NC1CCCCC1)(N1CC1)N1CC1 | 13.4 |
| CC(=O)Nc1ccc(NC(=O)C(C)OC(=O)c2cc(S(=O)(=O)N3CCOCC3)ccc2Cl)cc1 (centres unmarked) | 9.26 |
| CCOC(=O)c1nn(-c2ccc(Cl)cc2)c(C)cc1=O | 12.1 |
| COc1cc(CCC(=O)Nc2ccc(C)c(S(=O)(=O)N(C)C)c2)cc(OC)c1OC | 6.52 |

| SMILES | hERG current change (%, negative = inhibition) at 1uM [%] |
| --- | --- |
| COC(=O)c1ccc(NC(=O)N(c2ccccc2)c2ccccc2)cc1 | 13.2 |
| CCOc1ccc2[nH]c(=S)[nH]c2c1 | 14.3 |
| CS(=O)(=O)c1ccc(C(=O)NC2CCCc3ccccc32)cc1 (centres unmarked) | 15.4 |
| CCCCn1nc(C(=O)NCC(=O)Nc2c(C)cccc2C)c2ccccc2c1=O | -1.42 |
| CN1C(=O)C(CC(=O)Nc2ccc(F)cc2)N(Cc2cccs2)C1=S (centres unmarked) | 9.28 |
| Cn1nc(CC(=O)Nc2cccc3ncccc23)c2ccccc2c1=O | 2.04 |
| CC(=O)NC(CCCN1C(=O)c2ccccc2C1=O)c1nnn(C)n1 (centres unmarked) | 12.7 |
| CCN(CC)C(=O)Cn1cc(S(=O)(=O)CC(=O)NCCc2ccc(OC)c(OC)c2)c2ccccc21 | 11.1 |
| CNc1cc(N2CCN(C)CC2)ccc1[N+](=O)[O-] | 6.1 |
| COc1ccccc1-n1cnnc1SCC(=O)NC1CCCC1 | 3.6 |
| O=C(C1=C[C@H](C2CCCCC2)C[C@H](OCCCCO)O1)N1CCN(Cc2ccccc2)CC1 | -9.59 |
| Nn1c(SCC(=O)Nc2ccc(OC(F)F)cc2)nnc1-c1ccco1 | 1.71 |
| CC1CCCCN1C(=O)COc1ccc(S(=O)(=O)N2CCCC2)cc1[N+](=O)[O-] (centres unmarked) | 2.79 |
| O=C(CN(c1ccccc1Cl)S(=O)(=O)c1ccccc1)N/N=C/c1ccccc1C(=O)O | 13.6 |
| COc1ccc(N(C(=O)c2ccco2)C(C(=O)NC2CCCCC2)c2ccccc2)cc1 (centres unmarked) | 14.3 |
| Cc1noc(/C=C/c2ccco2)c1S(=O)(=O)N1CCC(C(=O)N(C)Cc2ccccc2)CC1 | 2.38 |
| Cc1nc2ccc(NC(=O)c3ccco3)cc2s1 | 8.97 |
| COc1ccc(OC)c(N=c2ssnc2Cl)c1 | 1.47 |
| CCOc1ccc(-n2c(SCC(=O)Nc3nccs3)nc3c(c2=O)SCC3)cc1 | -0.546 |
| O=C(c1ccc(Cl)c(F)c1F)N1CCCC1 | 11.8 |
| CC(C)(C=O)C1=CC(=O)c2ccccc2C1=O | 6.94 |
| COc1ccc(-n2c(SCC(=O)Nc3nccs3)nc3c(c2=O)SC(C)C3)cc1 (centres unmarked) | 2.22 |
| CCN(CC(=O)NCc1ccc(Cl)cc1)C(=O)COc1ccc(C)cc1C | -43.8 |

| SMILES | hERG current change (%, negative = inhibition) at 1uM [%] |
| --- | --- |
| CC(=O)Nc1ccc(C(=O)CN2C(=O)NC3(CCOc4ccccc43)C2=O)c(F)c1 (centres unmarked) | 0.0215 |
| O=C(C1CCN(S(=O)(=O)c2cccc3nsnc23)CC1)N1CCn2c1nc1ccccc12 | 2.78 |
| NC(=O)C1CCN(c2nc(-c3ccc(F)cc3)cs2)CC1 | 9.59 |
| CN1CCN(C(c2cccs2)c2nnnn2Cc2ccc(F)cc2)CC1.Cl (centres unmarked) | 9.5 |
| Cc1cc(C)nc(SCc2cccc(C(=O)O)c2)n1 | 0.978 |
| Cc1ccccc1OCC(=O)NNC(=O)c1cc(S(=O)(=O)N(C)C)ccc1N1CCCC1 | 4.06 |
| C=CCNc1nc(C(=O)OCC(=O)NCc2cccc(Cl)c2)cs1 | 3.5 |
| O=C(NCCS(=O)(=O)N1CCN(c2ccccc2)CC1)c1ccc(Br)o1 | 9.2 |
| CCc1nnc(NC(=O)C2CCCN(S(=O)(=O)c3ccc(OC)cc3)C2)s1 (centres unmarked) | 11.3 |
| CCCNC(=O)CSc1nnc(-c2ccco2)n1C | 4.54 |
| O=C(NNCc1ccc(O)cc1)c1ccccc1Cl | 13.6 |
| O=C(NCc1ccco1)c1cc2c(s1)CCCCC2 | -7.05 |
| CC(=O)c1ccc(NC(=O)CSCC(=O)Nc2ccc3ccccc3c2)cc1 | 12 |
| Cn1c(=O)c2c(SCC(N)=O)nc(CC(C)(C)C)nc2n(C)c1=O | 4.58 |
| N#C/C(=C\c1ccc(OCc2cccc(C(=O)O)c2)cc1)C(=O)NCc1ccco1 | 10.6 |
| O/N=C/c1cn(-c2ccccc2)nn1 | 3.07 |
| Cc1ccc(C(=O)Oc2ccc(/C=C3\C(=N)N4N=C(N5CCOCC5)SC4=NC3=O)cc2)cc1 | 19 |
| CCCCc1nnc(NC(=O)CC(=O)Nc2ccccc2C(=O)O)s1 | 6.83 |
| C=C1CCN([C@@H](C)C(=O)OCc2cccc(C)c2)S(=O)(=O)c2ccccc21 | 13.4 |
| Cc1cc(C)c(C#N)c(SCC(=O)Nc2ccc(S(=O)(=O)Nc3onc(C)c3C)cc2)n1 | 7.18 |
